Assay results reported in the antibiotic and cytotoxicity screens of Wong et al. (2023).
The other results are listed elsewhere or left out.

Experiments:
[1] = test system: HSkMC (human skeletal muscle cells); experiment: cytotoxicity call (relative viability < 0.9); conditions: 10 µM
[2] = test system: HepG2; experiment: cytotoxicity call (relative viability < 0.9); conditions: 10 µM
[3] = test system: S. aureus RN4220; experiment: growth inhibition call (relative growth <= 0.2); conditions: 50 µM

| SMILES | cytotoxicity call [1] | cytotoxicity call [2] | growth inhibition call [3] |
| --- | --- | --- | --- |
| C[C@@H]1CN([C@H](C)CO)C(=O)c2cc(C#CC3(O)CCCC3)cnc2O[C@H]1CN(C)S(C)(=O)=O | inactive | inactive | inactive |
| C[C@H](CO)N1C[C@H](C)[C@H](CN(C)Cc2ccc(C(F)(F)F)cc2)Oc2ccc(NS(=O)(=O)c3ccc(Cl)cc3)cc2C1=O | active | active | inactive |
| C[C@H](CO)N1C[C@H](C)[C@H](CN(C)C(=O)Nc2ccc(F)cc2)OCCCC[C@H](C)Oc2ccc(NC(=O)Nc3ccc4c(c3)OCO4)cc2C1=O | inactive | inactive | inactive |
| Cc1noc(C)c1NC(=O)Nc1cccc2c1O[C@@H](CN(C)C(=O)Nc1ccc(C(F)(F)F)cc1)[C@H](C)CN([C@@H](C)CO)C2=O | inactive | inactive | active |
| C[C@@H]1CN([C@@H](C)CO)C(=O)c2cc(C#CCN(C)C)cnc2O[C@@H]1CN(C)C(=O)Nc1cc(F)ccc1F | inactive | inactive | inactive |
| COC(=O)c1ccc(C(=O)OC)nc1 | active | active | inactive |
| CO[C@@H]1CN(C)C(=O)c2ccc(NS(C)(=O)=O)cc2OC[C@@H](C)N(C(=O)c2ccc3c(c2)OCO3)C[C@H]1C | inactive | inactive | inactive |
| C[C@@H]1CCCCO[C@@H](CN(C)C(=O)c2ccccc2)[C@@H](C)CN([C@@H](C)CO)C(=O)c2cc(NC(=O)Nc3ccc(C(F)(F)F)cc3)ccc2O1 | inactive | inactive | inactive |
